This is an account of results in PubChem BioAssay AID1454 (National Center for Advancing Translational Sciences (NCATS), 2008).

The structures appear in SMILES notation. Several values for one entry are separate records, joined by “and”; a condition that tells them apart may be missing. Equal entries are not always repeated. Hit rate of the full screen: of about 130,000 compounds, about 550 (0.42%) were called active. Roughly 4% stayed inconclusive and do not appear here. Calls follow the shape of the dose curve; as a rule, active = well fitted inhibition curve with a large enough effect; inconclusive = small, poorly fitted or top-dose-only effect, or effect the other way; inactive = flat fitted curve, though single readings scatter. The list shows a part of the results, in another mix than the full data. The source holds several records for some structures; these can differ, active in one and inactive in another.
Potency is read from the fitted curve at half-maximal effect.

The nature of this test: qHTS Assay for Inhibitors of the ERK Signaling Pathway using a Homogeneous Screening Assay; Stimulation with EGF. Also: nearly all actives have a fitted effect of over 55% in size.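 As to activity change, negative = inhibition: plate controls were stimulated vehicle wells for no effect and unstimulated vehicle basal for full effect.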 The note with it: HEK293-V1b, EGF-stimulated phospho-ERK AlphaScreen; activity change, negative = inhibition: at the top concentration. The gist of the method: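 Cell line HEK293 (stable V1b), low serum overnight. Pretreatment: compound 30 min, 37C. EGF 25 nM, 5 min. Detection: SureFire AlphaScreen, 5 h RT. AC50 via standard Hill equation.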
(In general: qHTS replaces the single test concentration by a dilution series.)
For `Cc1cc(C(=O)N[C@H](c2ccccc2)[C@@]2(C)C[C@@H]2[C@@H](C)C(=O)Nc2ccc3ccccc3c2)n(C)n1`, the Potency entry was “inactive”.

`CCN(CC)CC(=O)Nc1c(C)cccc1C`: the Potency result was “inactive”.

On to `COc1cccc2c1C(=O)c1c(O)c3c(c(O)c1C2=O)C[C@@](O)(C(C)=O)C[C@@H]3O[C@H]1C[C@H](N)[C@H](O)[C@H](C)O1`, for which the Potency result was “inactive and active: 25.1 µM”.

On to `CCCC[C@H](CC)CN=C(N)NC(N)=NCCCCCCN=C(N)NC(N)=NC[C@@H](CC)CCCC`, for which the “activity change, negative = inhibition” value was inactive: 5.38% [at 25.7 µM].

On to `Cc1cccc(Nc2ncnc3ccc(Br)cc23)c1`, for which the Potency was active: 1.78 µM.

On to `COC(CNC(=O)c1ccc2c3c(onc13)-c1ccccc1C2=O)OC`, for which the Potency is active: 35.5 µM.

`CNc1cccc2c1C(=O)c1ccccc1C2=O`: the Potency is active: 10 µM.

Take `CC(=O)O[C@@]1(C(C)=O)CCC2C3C=C(Cl)C4=CC(=O)CC[C@]4(C)C3CC[C@]21C` (some centres undefined): the “activity change, negative = inhibition” value was inactive: 11.6%.

With `O=C(O)/C=C\c1ccc(O)c(O)c1`, the “activity change, negative = inhibition” value is inactive: 4.66% [at 25.7 µM].

Consider `CCCc1c(-c2ccc(O)cc2)nn(-c2ccc(O)cc2)c1-c1ccc(O)cc1`, for which the Potency entry was “inactive”.

Consider `Cc1cc(N=Nc2ccc(Cl)cc2)cc(CN2CCOCC2)c1O`, for which the Potency is active: 15.8 µM.

Consider `COc1ccc(/C=C/C(=O)Nc2ccccc2C(=O)O)cc1OC`, for which the “activity change, negative = inhibition” value is inactive: 3.55% [at 57.5 µM].

Take `CN1CCN(CCCN2c3ccccc3Sc3ccc(C(F)(F)F)cc32)CC1`: the Potency result is “inactive”.

Consider `Cc1cc(C)[n+]2[nH]c(N)c(N=Nc3ccccc3)c2n1`, for which the “activity change, negative = inhibition” value is inactive: 3.58% [at 57.5 µM].

As to `O=C(CCc1ccc(O)cc1)c1c(O)cc(O)cc1O`, the Potency result was “inactive”.

For `O=C1c2ccc(O)c(O)c2C(=O)c2c(O)ccc(O)c21`, the Potency is active: 7.94 µM.

Turning to `Oc1cc(O)c2c(c1)O[C@H](c1ccc(O)c(O)c1)[C@H](O)C2`, the Potency result was “inactive”.

Regarding `Nc1nc2ccc(OC(F)(F)F)cc2s1`, the Potency entry was “inactive”.

Consider `Cc1cccc2cc(/C=N/NC(=O)c3ccccc3O)c(Cl)nc12`, for which the Potency is active: 20 µM.

`O=C(C1=C[C@H](c2coc3ccccc3c2=O)C[C@H](OCCCCO)O1)N1CCN(Cc2ccccc2)CC1`: the “activity change, negative = inhibition” value was inactive: -5.52% [at 57.5 µM].

On to `COc1ccc(/C=C2/SC(=S)N(CCCC(=O)Nc3ccc(O)cc3)C2=O)cc1`, for which the “activity change, negative = inhibition” value was inactive: 4.05% [at 57.5 µM].

For the compound `O=c1oc2ccccc2cc1-c1csc(Nc2ccc(O)cc2)n1`, the Potency is active: 39.8 µM.

Take `COC1/C=C/OC2(C)Oc3c(C)c(O)c4c(O)c(c(/C=N/N5CCN(C)CC5)c(O)c4c3C2=O)NC(=O)/C(C)=C/C=C/C(C)C(O)C(C)C(O)C(C)C(OC(C)=O)C1C` (centres undefined): the “activity change, negative = inhibition” value is inactive: -7.28%.

In the case of `C[C@@H](C(=O)O)c1cccc(C(=O)c2ccccc2)c1`, the “activity change, negative = inhibition” value was inactive: 6.18% [at 25.7 µM].

On to `Cc1cc2c(Nc3ccccc3)ncnc2s1`, for which the Potency was active: 14.1 µM.

In the case of `CN1CCc2cccc3c2[C@@H]1Cc1ccc(O)c(O)c1-3`, the Potency result is “inactive”.

On to `CN(C)CCOC(c1ccccc1)c1ccccc1`, for which the Potency result was “inactive”.

Consider `Nc1ncnc2c1ncn2[C@@H]1O[C@H](CO)[C@@H](O)[C@H]1O`, for which the Potency result is “inactive”.

On to `COc1ccc([C@H]2CC(=O)c3c(O)cc(O)cc3O2)cc1O`, for which the “activity change, negative = inhibition” value was inactive: 5.36% [at 57.5 µM].

As to `CN(C)CCN(Cc1ccccc1)c1ccccn1`, the Potency result is “inactive”.

In the case of `Cc1ccc(-c2nnc(N3CCN(C(=O)COc4cccc(C)c4)CC3)c3ccccc23)cc1`, the Potency is active: 39.8 µM.

Turning to `N[C@@H]1CONC1=O`, the Potency entry is “inactive”.

For `O=c1c(OC2OC(CO)C(O)C(O)C2O)c(-c2ccc(O)c(O)c2)oc2cc(O)cc(O)c12` (centres undefined), the “activity change, negative = inhibition” value is inactive: -3.68%.

`O=C(CCCN1C(=O)/C(=C/c2cccc(Br)c2)SC1=S)Nc1cccnc1`: the “activity change, negative = inhibition” value was inactive: 0.994%.

Take `O=C(O)/C=C/c1ccc(O)c(O)c1`: the Potency entry was “inactive”.

With `CSc1ccc2c(c1)C(N1CCN(C)CC1)Cc1ccccc1S2` (centres undefined), the “activity change, negative = inhibition” value is inactive: 20.5%.

As to `COc1ccc(/C=C2\SC(=O)N(CC(=O)NNC(=O)c3ccccc3O)C2=O)cc1OC`, the Potency is active: 12.6 µM.

For `CC(Cc1ccccc1)C(=O)N[C@@H](CO)Cc1ccccc1` (some centres undefined), the “activity change, negative = inhibition” value is inactive: 5.31%.

For `CCOc1ccc(-c2csc(/C(C#N)=C\c3ccc(O)c([N+](=O)[O-])c3)n2)cc1`, the Potency is active: 12.6 µM.

With `O=C(NCC1CC1)[C@H]1C[C@@H]1[C@H](NP(=O)(c1ccccc1)c1ccccc1)c1ccccc1`, the “activity change, negative = inhibition” value was inactive: 5.13%.

Regarding `CN1C[C@@H]2C(c3ccccc3)C3(c4ccc(C#N)cc4)CC2(C3)[C@H]1c1ccccc1` (some centres undefined), the “activity change, negative = inhibition” value was inactive: 1.6%.

With `O=C(O)[C@@H](O)c1ccccc1`, the “activity change, negative = inhibition” value is inactive: -2.04% [at 57.5 µM].

Take `OCCOCCN1CCN(C2=Nc3ccccc3Sc3ccccc32)CC1`: the “activity change, negative = inhibition” value was inactive: 23.5%.

Take `Cn1cccc1/C=N/N1CCN(Cc2cccc3ccccc23)CC1`: the Potency was active: 17.8 µM.
